# Reference: the supplement of paper PMC9927326
# MIC of clinical C. albicans isolates, CLSI broth microdilution (ranges and time not stated); higher = less susceptible. Call: susceptible or wild type [S] / resistant or non-wild type [R] by CLSI breakpoints or epidemiological cut-offs; intermediate and dose-dependent carry no call here (the paper groups them with resistant). '<=' and '>=' mark each drug's lowest and highest value, inferred; the source prints them plain. Isolates are numbered anew.
# What was measured:
# Test in all cases: CLSI broth microdilution.
# fluconazole = compound: OC(Cn1cncn1)(Cn1cncn1)c1ccc(F)cc1F [fluconazole]
# micafungin = compound: CCCCCOc1ccc(-c2cc(-c3ccc(C(=O)N[C@H]4C[C@@H](O)[C@@H](O)NC(=O)[C@@H]5[C@@H](O)[C@@H](C)CN5C(=O)[C@H]([C@H](O)CC(N)=O)NC(=O)[C@H]([C@H](O)[C@@H](O)c5ccc(O)c(OS(=O)(=O)O)c5)NC(=O)[C@@H]5C[C@@H](O)CN5C(=O)[C@H]([C@@H](C)O)NC4=O)cc3)no2)cc1 [micafungin]
# caspofungin = compound: CC[C@H](C)C[C@H](C)CCCCCCCCC(=O)N[C@H]1C[C@@H](O)[C@@H](NCCN)NC(=O)[C@@H]2[C@@H](O)CCN2C(=O)[C@H]([C@H](O)CCN)NC(=O)[C@H]([C@H](O)[C@@H](O)c2ccc(O)cc2)NC(=O)[C@@H]2C[C@@H](O)CN2C(=O)[C@H]([C@@H](C)O)NC1=O [caspofungin]
# flucytosine = compound: Nc1[nH]c(=O)ncc1F [flucytosine]
# posaconazole = compound: CC[C@@H]([C@H](C)O)n1ncn(-c2ccc(N3CCN(c4ccc(OC[C@@H]5CO[C@@](Cn6cncn6)(c6ccc(F)cc6F)C5)cc4)CC3)cc2)c1=O [posaconazole]
# voriconazole = compound: C[C@@H](c1ncncc1F)[C@](O)(Cn1cncn1)c1ccc(F)cc1F [voriconazole]
# anidulafungin = compound: CCCCCOc1ccc(-c2ccc(-c3ccc(C(=O)N[C@H]4C[C@@H](O)[C@@H](O)NC(=O)[C@@H]5[C@@H](O)[C@@H](C)CN5C(=O)[C@H]([C@@H](C)O)NC(=O)[C@H]([C@H](O)[C@@H](O)c5ccc(O)cc5)NC(=O)[C@@H]5C[C@@H](O)CN5C(=O)[C@H]([C@@H](C)O)NC4=O)cc3)cc2)cc1 [anidulafungin]
# amphotericin B = compound: C[C@@H]1[C@H](O)[C@@H](C)/C=C/C=C/C=C/C=C/C=C/C=C/C=C/[C@H](O[C@@H]2O[C@H](C)[C@@H](O)[C@H](N)[C@@H]2O)C[C@@H]2O[C@](O)(C[C@@H](O)C[C@@H](O)[C@H](O)CC[C@@H](O)C[C@@H](O)CC(=O)O[C@H]1C)C[C@H](O)[C@H]2C(=O)O [amphotericin B]
# itraconazole = compound: CCC(C)n1ncn(-c2ccc(N3CCN(c4ccc(OCC5COC(Cn6cncn6)(c6ccc(Cl)cc6Cl)O5)cc4)CC3)cc2)c1=O [itraconazole]
Test System,MIC (fluconazole),MIC (micafungin),MIC (caspofungin),MIC (flucytosine),MIC (posaconazole),MIC (voriconazole),MIC (anidulafungin),MIC (amphotericin B),MIC (itraconazole)
"Candida albicans isolate 294 (Erg11p: WT, Fur1p: WT, Tac1p: I558V,A377V,F189S,N174D,M170I,K87N)",0.25 mg/L [S],0.015 mg/L [S],0.03 mg/L [S],≤ 0.06 mg/L [S],0.015 mg/L [S],≤ 0.008 mg/L [S],0.03 mg/L [S],0.5 mg/L [S],≤ 0.015 mg/L [S]
"Candida albicans isolate 295 (Erg11p: WT, Fur1p: WT, Tac1p: A377V,F189S,N174D,M170I,K87N)",0.5 mg/L [S],≤ 0.008 mg/L [S],0.015 mg/L [S],≤ 0.06 mg/L [S],0.015 mg/L [S],≤ 0.008 mg/L [S],0.06 mg/L [S],0.5 mg/L [S],0.03 mg/L [S]
"Candida albicans isolate 296 (Erg11p: E266D, Fur1p: WT, Tac1p: G709S,I558V,A377V,F189S,N174D,M170I,K87N)",0.5 mg/L [S],≤ 0.008 mg/L [S],0.03 mg/L [S],≤ 0.06 mg/L [S],0.03 mg/L [S],≤ 0.008 mg/L [S],≤ 0.015 mg/L [S],0.5 mg/L [S],0.03 mg/L [S]
"Candida albicans isolate 297 (Erg11p: V488I,E266D, Fur1p: WT, Tac1p: I558V,A377V,F189S,N174D,M170I,K87N)",0.25 mg/L [S],≤ 0.008 mg/L [S],0.03 mg/L [S],≤ 0.06 mg/L [S],0.015 mg/L [S],≤ 0.008 mg/L [S],≤ 0.015 mg/L [S],0.5 mg/L [S],0.03 mg/L [S]
"Candida albicans isolate 298 (Erg11p: E266D,G129A, Fur1p: WT, Tac1p: R869Q,L695F,I558V,A377V,F189S,M170V,L131I)",1 mg/L [S],0.03 mg/L [S],0.12 mg/L [S],0.12 mg/L [S],0.06 mg/L [S],0.06 mg/L [S],0.12 mg/L [S],0.5 mg/L [S],0.12 mg/L [S]
"Candida albicans isolate 299 (Erg11p: WT, Fur1p: WT, Tac1p: A377V,F189S,N174D,M170I,K87N)",0.25 mg/L [S],0.015 mg/L [S],0.06 mg/L [S],≤ 0.06 mg/L [S],0.015 mg/L [S],≤ 0.008 mg/L [S],0.12 mg/L [S],0.5 mg/L [S],0.03 mg/L [S]
"Candida albicans isolate 300 (Erg11p: V488I,E266D, Fur1p: WT, Tac1p: N896S,I895T)",0.5 mg/L [S],0.015 mg/L [S],0.03 mg/L [S],≥ 64 mg/L [R],0.015 mg/L [S],≤ 0.008 mg/L [S],≤ 0.015 mg/L [S],0.25 mg/L [S],0.03 mg/L [S]
"Candida albicans isolate 301 (Erg11p: V437I,E266D, Fur1p: WT, Tac1p: N896S,I895T,M170V)",0.5 mg/L [S],0.015 mg/L [S],0.03 mg/L [S],≤ 0.06 mg/L [S],0.03 mg/L [S],≤ 0.008 mg/L [S],0.06 mg/L [S],0.25 mg/L [S],0.06 mg/L [S]
"Candida albicans isolate 302 (Erg11p: E266D, Fur1p: WT, Tac1p: N896S,A377V,F189S,N174D,M170I,K87N)",0.25 mg/L [S],0.015 mg/L [S],0.03 mg/L [S],≤ 0.06 mg/L [S],0.015 mg/L [S],≤ 0.008 mg/L [S],0.03 mg/L [S],0.25 mg/L [S],0.03 mg/L [S]
"Candida albicans isolate 303 (Erg11p: WT, Fur1p: WT, Tac1p: N896S)",0.25 mg/L [S],0.015 mg/L [S],0.03 mg/L [S],≤ 0.06 mg/L [S],0.015 mg/L [S],≤ 0.008 mg/L [S],≤ 0.015 mg/L [S],0.5 mg/L [S],0.03 mg/L [S]
"Candida albicans isolate 304 (Erg11p: D153E, Fur1p: WT, Tac1p: I558V,A377V,M170V)",1 mg/L [S],0.015 mg/L [S],0.03 mg/L [S],≤ 0.06 mg/L [S],0.015 mg/L [S],≤ 0.008 mg/L [S],0.03 mg/L [S],0.5 mg/L [S],0.03 mg/L [S]
"Candida albicans isolate 305 (Erg11p: E266D, Fur1p: WT, Tac1p: WT)",0.5 mg/L [S],0.015 mg/L [S],0.015 mg/L [S],≤ 0.06 mg/L [S],0.015 mg/L [S],≤ 0.008 mg/L [S],≤ 0.015 mg/L [S],0.5 mg/L [S],≤ 0.015 mg/L [S]
"Candida albicans isolate 306 (Erg11p: D153E, Fur1p: WT, Tac1p: N896S)",0.5 mg/L [S],0.015 mg/L [S],0.06 mg/L [S],0.12 mg/L [S],0.03 mg/L [S],≤ 0.008 mg/L [S],0.06 mg/L [S],0.5 mg/L [S],0.06 mg/L [S]
"Candida albicans isolate 307 (Erg11p: V488I,E266D, Fur1p: WT, Tac1p: I558V,A377V)",0.25 mg/L [S],0.015 mg/L [S],0.03 mg/L [S],≤ 0.06 mg/L [S],0.015 mg/L [S],≤ 0.008 mg/L [S],0.06 mg/L [S],0.5 mg/L [S],≤ 0.015 mg/L [S]
"Candida albicans isolate 308 (Erg11p: WT, Fur1p: WT, Tac1p: N896S)",0.25 mg/L [S],≤ 0.008 mg/L [S],0.03 mg/L [S],≤ 0.06 mg/L [S],0.015 mg/L [S],≤ 0.008 mg/L [S],0.03 mg/L [S],0.5 mg/L [S],0.06 mg/L [S]
"Candida albicans isolate 309 (Erg11p: V488I,E266D, Fur1p: WT, Tac1p: N896S,I895T)",0.5 mg/L [S],0.015 mg/L [S],0.12 mg/L [S],≤ 0.06 mg/L [S],0.03 mg/L [S],0.015 mg/L [S],0.03 mg/L [S],0.5 mg/L [S],0.06 mg/L [S]
"Candida albicans isolate 310 (Erg11p: V437I,E266D, Fur1p: WT, Tac1p: F189S,N174D,M170I,A90T,K87N)",0.5 mg/L [S],0.015 mg/L [S],0.03 mg/L [S],≤ 0.06 mg/L [S],0.03 mg/L [S],0.015 mg/L [S],0.12 mg/L [S],0.25 mg/L [S],0.06 mg/L [S]
